Laboratory results published in patent US10759791B2, “Mammalian and bacterial nitric oxide synthase inhibitors” (Northwestern University, priority 2014, dated 2020).

Molecular target: murine macrophage iNOS (Mus musculus (Mouse), UniProt P29477)
Test: Hemoglobin capture assay, Ki (Example 159)
Format: biochemical

Question: `Cc1cc(N)nc(CCc2cncc(N3CCOCC3)c2)c1` [Compound 14c, 4-Methyl-6-(2-(5-morpholinopyridin-3-yl)ethyl)pyridin-2-amine] was tested. Which Ki did it give?
Answer: The Ki was 11.6 µM.

Question: `COCCN(C)c1cncc(CCc2cc(C)cc(N)n2)c1` [Compound 14d, 6-(2-(5-((2-Methoxyethyl)(methyl)amino)pyridin-3-yl)ethyl)-4-methylpyridin-2-amine] was tested. Which Ki did it give?
Answer: Its Ki is 18.2 µM.

Question: Which Ki does the source give for `COCCCNc1cncc(CCc2cc(C)cc(N)n2)c1` [Compound 14e, 6-(2-(5-(3-Methoxypropylamino)pyridin-3-yl)ethyl)-4-methylpyridin-2-amine] here?
Answer: Its Ki is 7.05 µM.

Question: Which Ki does the source give for `Cc1cc(N)nc(CCc2cncc(N3CCN(C)CC3)c2)c1` [Compound 14g, 4-Methyl-6-(2-(5-(4-methylpiperazin-1-yl)pyridin-3-yl)ethyl)pyridin-2-amine] here?
Answer: The Ki was 14.2 µM.

Question: For `Cc1cc(N)nc(CCc2cncc(C3CCN(C)CC3)c2)c1` [Compound 14h, 4-Methyl-6-(2-(5-(1-methylpiperidin-4-yl)pyridin-3-yl)ethyl)pyridin-2-amine], which Ki is on record?
Answer: The Ki was 11.8 µM.

Question: For `Cc1cc(N)nc(CCc2cncc(CCCN(C)C)c2)c1` [Compound 14k, 6-(2-(5-(3-(Dimethylamino)propyl)pyridin-3-yl)ethyl)-4-methylpyridin-2-amine], which Ki is on record?
Answer: The Ki was 1.49 µM.
